# Data published in paper PMC4336329 (PLoS ONE, 2015).
# The whole screen tested about 310,000 compounds, of which about 2,200 (0.71%) showed an effect of 50% or more. The effect is printed as a negative number. Some of the results follow.
# Target: human ether-à-go-go-related gene (hERG) potassium channel (human, UniProt Q12809)
# Assay: primary screen, population patch clamp on CHO cells stably expressing hERG
# Sequence of human ether-à-go-go-related gene (hERG) potassium channel (Q12809 whole entry, looked up): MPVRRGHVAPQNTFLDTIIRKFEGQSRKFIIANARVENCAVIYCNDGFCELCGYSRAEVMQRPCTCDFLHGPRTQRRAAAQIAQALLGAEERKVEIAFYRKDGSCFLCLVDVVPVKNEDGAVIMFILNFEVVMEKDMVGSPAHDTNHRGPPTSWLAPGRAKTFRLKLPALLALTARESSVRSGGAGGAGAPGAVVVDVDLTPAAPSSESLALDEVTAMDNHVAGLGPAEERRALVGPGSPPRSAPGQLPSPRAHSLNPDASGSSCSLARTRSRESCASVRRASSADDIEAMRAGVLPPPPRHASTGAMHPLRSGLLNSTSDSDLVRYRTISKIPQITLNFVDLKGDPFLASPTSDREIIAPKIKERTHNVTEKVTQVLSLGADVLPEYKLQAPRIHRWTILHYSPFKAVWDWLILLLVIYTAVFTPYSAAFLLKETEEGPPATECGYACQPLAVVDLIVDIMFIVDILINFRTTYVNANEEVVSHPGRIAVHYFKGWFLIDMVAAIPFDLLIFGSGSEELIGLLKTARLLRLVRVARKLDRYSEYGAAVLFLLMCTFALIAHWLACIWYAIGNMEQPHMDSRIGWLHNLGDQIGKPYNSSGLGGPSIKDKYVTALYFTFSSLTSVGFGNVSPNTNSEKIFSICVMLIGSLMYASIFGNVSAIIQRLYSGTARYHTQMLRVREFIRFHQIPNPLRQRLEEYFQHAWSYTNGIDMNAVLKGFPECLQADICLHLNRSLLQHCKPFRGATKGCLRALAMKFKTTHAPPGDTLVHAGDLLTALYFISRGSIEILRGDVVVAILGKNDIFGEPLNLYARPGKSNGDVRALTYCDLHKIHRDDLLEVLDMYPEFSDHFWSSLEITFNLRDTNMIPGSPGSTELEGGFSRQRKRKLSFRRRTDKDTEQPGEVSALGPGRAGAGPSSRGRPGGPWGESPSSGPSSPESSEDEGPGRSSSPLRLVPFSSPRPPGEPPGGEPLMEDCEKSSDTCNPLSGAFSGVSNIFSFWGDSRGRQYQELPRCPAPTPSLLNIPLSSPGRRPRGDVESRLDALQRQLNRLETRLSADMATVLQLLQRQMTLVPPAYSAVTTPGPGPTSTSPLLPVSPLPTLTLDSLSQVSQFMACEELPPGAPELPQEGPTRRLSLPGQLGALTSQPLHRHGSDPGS
row,Compound,"hERG current change (%, negative = inhibition) at 1uM"
1,CCN(CCn1cccn1)Cc1nc(Cc2cccc(F)c2)no1,5.58%
2,CCOC(=O)c1cc(C#N)c(SC)nc1-c1ccccc1,17%
3,O=C(CSc1nc2ccccc2s1)Nc1cc(S(=O)(=O)N2CCOCC2)ccc1O,4.06%
4,Cc1cc(C)cc(NC(=O)Cc2ccc(S(=O)(=O)N3CCCC3)s2)c1,-0.0487%
5,Cc1ccc(C(=O)Nc2cccc(C(=O)NCc3ccccc3)c2)cc1,11.8%
6,COc1ccc(CCNC(=O)CC(c2ccccc2)c2cccc(C)c2O)cc1OC (stereo not drawn),6%
7,CCn1cc(C(=O)NCCCO)c(=O)c2cc(F)c(N3CCN(C)CC3)cc21.Cl,2.01%
8,Cn1c(C(=O)OCC(=O)NCc2ccco2)cc2sccc21,3.82%
9,Cc1c(Cl)cnc(NC(=O)COC(=O)Cc2coc3ccc4ccccc4c23)c1Cl,-6%
10,O=c1cccc2n1CC1CC2CN(Cc2cccc(Cl)c2Cl)C1 (stereo not drawn),-7.2%
11,CC1(C)Oc2ccc(C(=O)N3CCCCC3)cc2N(CC(=O)NCc2ccccc2)C1=O,1.75%
12,CNC(=O)c1csc(Cc2c(Cl)sc3ccc(Cl)cc23)n1,3.65%
13,Cn1cc(C(=O)NCc2cccnc2)c(=O)c2cc(S(=O)(=O)N3CCCCCC3)ccc21,13.9%
14,CCOc1ccccc1-c1nn2c(Cc3ccccc3)nnc2s1,11.6%
15,CCc1noc(C)c1C(=O)N1CCOCC1,12.1%
16,Cc1cc(C)nc(/N=C(\N)Nc2ccc(OCc3ccccc3)cc2)n1,-28.8%
17,CCOc1ccc(-c2c(C(=O)N/N=C/c3c[nH]c4ccccc34)nnn2-c2nonc2N)cc1,17.5%
18,O=C(Cc1c[nH]c2ccccc12)N/N=C/c1ccccc1O,6.75%
19,CN(Cc1ccccc1)C(=O)CN1C(=O)NC(C)(c2ccc(Cl)cc2)C1=O (stereo not drawn),12.8%
20,CCOC(=O)c1sc(NC(=O)CSc2nc(C)cc(C)n2)c(C#N)c1C,8.65%
21,CCOC(=O)N1CCN(C2=C(NS(=O)(=O)c3ccccc3)C(=O)c3ccccc3C2=O)CC1,0.237%

row,Compound,"hERG current change (%, negative = inhibition) at 1uM"
1,Cc1cccc(C)c1N(CC(=O)N1CCN(C)CC1)S(C)(=O)=O,22.4%
2,CCOC(=O)C(Cc1ccccc1)c1ccnc2ncnn12 (stereo not drawn),7.6%
3,COc1ccc(CNC(=O)CC(C)S(=O)(=O)c2ccc3c(c2)NC(=O)CO3)cc1 (stereo not drawn),16.1%
4,O=C(Nc1ccon1)c1cc2ccccc2oc1=O,1.51%
5,CCOC(=O)N1CCN(C(=O)COC(=O)C2CCN(S(=O)(=O)c3ccc(C)c(C)c3)CC2)CC1,-13.3%
6,CCCc1cc(C(=O)NNC(=S)NCc2ccccc2)cs1,5.72%
7,Cc1cccc(-c2nn(-c3ccccc3)cc2C(=O)N2CCN(C3CCS(=O)(=O)C3)CC2)c1 (stereo not drawn),-8.92%
8,COc1cc(CN2CCC(CO)(Cc3cccc(C(F)(F)F)c3)CC2)ccc1F,-15.9%
9,COc1ccc(NC(=O)OC(C)C)cc1,4.78%
10,Cc1cc(C)nc(SCC(=O)Nc2sc3c(c2C#N)CCC(C)C3)n1 (stereo not drawn),12.5%
11,COc1ccccc1NC(=O)Nc1nc(CC(=O)N2CCN(c3ccccc3OC)CC2)cs1,11.7%
12,O=C(O)/C=C\C(=O)O.OCCN1CCN(CC/C=C2/c3ccccc3CSc3ccccc32)CC1,10.2%
13,CCOC(=O)C1=C(C)NC(=S)NC1c1ccc(-c2ccc(Cl)cc2)o1 (stereo not drawn),14.5%
14,CCC(C(=O)NC1CCCC1)N(C(=O)c1snc(C(N)=O)c1N)c1ccc2c(c1)OCCO2 (stereo not drawn),8.22%
15,Cc1noc(N)c1C1(O)C(=O)N(C(C)C)c2ccccc21 (stereo not drawn),9.37%
16,O=C(Nc1ccccn1)c1cc(-n2cnnc2)ccc1Cl,-7.07%
17,Cc1cc(C(=O)N2CCCC(C(=O)c3cc(F)ccc3F)C2)c(C)o1 (stereo not drawn),11.8%
18,Cc1cccc(N(Cc2ccccc2)C(=O)Cc2ccc(S(=O)(=O)N3CCOCC3)s2)c1,11%
19,Cc1ccc(NS(=O)(=O)c2cc([N+](=O)[O-])ccc2N/N=C/c2sc(N3CCOCC3)nc2-c2ccccc2)c(C)c1,4.56%
20,Oc1c(Br)cc(Br)cc1CNn1cnnc1,19.2%
21,CCCN(C(=O)c1cn(C)c(=O)c2ccccc12)c1ccccc1C,8.74%

row,Compound,"hERG current change (%, negative = inhibition) at 1uM"
1,Cc1cc2nc(-c3ccc(=O)[nH]c3)n(C)c2cc1C,11%
2,CC(C)(C)C(=O)NC(=S)Nc1ccc(S(=O)(=O)Nc2nccs2)cc1,19%
3,COC(=O)C1=C(c2cccc(C#N)c2)C[C@@H]2CC[C@H]1N2C(=O)NCCOc1ccc(OC)cc1,-4.73%
4,CS(=O)(=O)N(CC(=O)N1CCCCC1)Cc1ccccc1,3.04%
5,Cc1cc2nc(C)n(CCCNC(=O)Nc3cccc4ccccc34)c2cc1C,12.6%
6,CCCn1nc(C(=O)NNC(=O)CCOc2ccccc2OCC)c2ccccc2c1=O,6.61%
7,CC(=O)NCCC1CCN(C(=O)c2cc(COc3ccc(C)nc3)on2)CC1,25.2%
8,CCCCOc1ccc(-c2nc(=S)[nH][nH]2)cc1,7.3%
9,Cc1ccc(CNC(=O)C(=O)NCCC2CCCCN2S(=O)(=O)c2cccs2)cc1 (stereo not drawn),6.62%
10,Cc1ccc(S(=O)(=O)NCCC(C)C)cc1[N+](=O)[O-],-1.84%
11,NC(=O)Cc1ccc(C(=O)c2ccc(Cl)cc2)s1,13.5%
12,COC(=O)C1=C(CS(=O)(=O)c2ccc(C)cc2)NC(=O)NC1c1ccc(OC)c(OC)c1 (stereo not drawn),17.5%
13,O=C1OCc2cc(NS(=O)(=O)c3cccs3)ccc21,11.6%
14,COc1ccc(OC)c(S(=O)(=O)N2CCC(C(=O)N3CCc4ccccc4C3)CC2)c1,3.11%
15,COc1ccc(OC)c2c(N)c(C#N)c(C(F)(F)C(F)(F)F)nc12,10.1%
16,CCCc1cc(=O)n2nc(N3CCC(C(=O)NCc4ccc(C)o4)CC3)sc2n1,-29.3%
17,COCCCn1c(SCc2ccc(OC)cc2)nc2cc(OC)c(OC)cc2c1=N,-1.06%
18,COCCCNC(=O)CCCn1c(=O)c2ccccc2n(Cc2cccc([N+](=O)[O-])c2)c1=O,3.88%
19,COc1ccc(OC)c(NC(=S)N2c3ccccc3CC2C)c1 (stereo not drawn),4.6%
20,Cn1c(=O)c2c(nc(N3CCOCC3)n2CCc2ccccc2)n(C)c1=O,20.2%
21,OCC1(CC2CCCCO2)CCN(Cc2nc3ccccc3[nH]2)CC1 (stereo not drawn),14.8%

row,Compound,"hERG current change (%, negative = inhibition) at 1uM"
1,COc1ccc(C(=O)CCS(=O)(=O)c2ccc(F)cc2)cc1OC,16.8%
2,CCCCNC(=O)c1onc(CSc2cccc(C)c2)c1C(=O)O,8.22%
3,CCOC(=O)C1(Cc2cccc(OC)c2)CCN(Cc2cccn2-c2ccccn2)CC1,-79.4%
4,CCOc1ccc(NC(=O)c2ccc(N3CC4CC(C3)c3cccc(=O)n3C4)c(NC(=O)CCN3CCOCC3)c2)cc1 (stereo not drawn),12.1%
5,COc1cc(CC(=O)NCCc2ccc(OCc3ccccc3)cc2)c([N+](=O)[O-])cc1OC,5.36%
6,COc1cccc(-c2nc(CS(=O)(=O)CC(=O)NCCC(C)C)c(C)o2)c1,14.4%
7,CCOC(=O)c1cc(-c2ccccc2)nc2nc(N3CCCCC3)sc12,11.4%
8,CCC1Oc2ccccc2N(CC(=O)Nc2ccc(OC)cc2OC)C1=O (stereo not drawn),13.2%
9,COc1ccc(Nc2c3ccccc3nc3ccccc23)cc1,-20.2%
10,CCOC(=O)CN1C(=O)NC2(CCCc3ccccc32)C1=O (stereo not drawn),12.9%
11,CC(=O)Nc1ccc(SC[C@H](CC(C)C)N2CCN(CCc3ccccc3)CCC2=O)cc1,-26.2%
12,CC(C)CN1C(=O)c2ccc(C(=O)Nc3ccc(O)cc3C(=O)O)cc2C1=O,13.2%
13,O=C(COc1ccc2c3c(c(=O)oc2c1)CCC3)N1CCN(c2ccc(F)cc2)CC1,3.26%
14,COc1ccc(/C=C/C(=O)Nc2nnc(C(C)C)s2)cc1OC,4.69%
15,CCCCCN(C(=O)CCC(=O)OCC(=O)c1c(C)cc(C)cc1C)c1c(N)n(CCCC)c(=O)[nH]c1=O,1.22%
16,O=c1[nH]c(/C=C\c2cccnc2)c([N+](=O)[O-])c(=O)[nH]1,10.8%
17,C/C(=N\NC(=O)c1ccc(N(C)C)cc1)c1ccc(C)c(C)c1,7.22%
18,Fc1cccc(Cl)c1Cn1ncc2ccccc21,5.44%
19,Cc1nnc(N2C(=O)C(=O)/C(=C(/O)c3ccc4c(c3)OCCO4)C2c2ccc([N+](=O)[O-])cc2)s1 (stereo not drawn),15.1%
20,Cc1ccc(NC(=S)N(CCCN2CCCC2)Cc2cccn2Cc2ccc(Cl)cc2)cc1C,10.2%
21,COC(=O)CCC(=O)N1CN2CN(C(=O)CCC(=O)OC)CC([N+](=O)[O-])(C2)C1,-1.51%
